The other results are listed elsewhere or left out. Cleavage of a single-stranded DNA pool by Rep nickase domains was read by sequencing (3 µM enzyme, 1 h, 37 °C); shown is the middle of each 90-letter strand. The score is log2 (uncut reads / reads without enzyme); strong cutting gives strongly negative numbers. There is no active / inactive call. The scaling is to total reads; where an enzyme cuts many sequences, the uncut ones exceed 0.
Legend:
Assay in all cases: uncleaved DNA left, log2 of reads against the no-enzyme library (log2 ratio); higher = less cleavage (more negative = more Rep cleavage of the k-mer); sequences stand for … in CTCGTCCG…ACCGGAGA
[1] = tested on: T1, Rep nickase domain of Muscovy duck circovirus
T1 sequence (residues 1-111, tag not shown): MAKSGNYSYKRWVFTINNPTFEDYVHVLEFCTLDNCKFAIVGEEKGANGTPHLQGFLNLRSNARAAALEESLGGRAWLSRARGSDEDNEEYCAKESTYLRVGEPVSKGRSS
Method: (§1)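 A pool of 90-nt single-stranded DNAs with seven random bases just before the constant AC of the nick site (name = the seven bases) was cut by 3 µM recombinant His6-SUMO-tagged Rep nickase domain (300 nM DNA, 50 mM HEPES pH 8.0, 50 mM NaCl, 1 mM MnCl2, 1 h, 37 °C, three replicates). Uncut DNA was amplified and sequenced.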

[2] = tested on: T2, Rep nickase domain of banana bunchy top virus
T2 sequence (residues 1-94, tag not shown): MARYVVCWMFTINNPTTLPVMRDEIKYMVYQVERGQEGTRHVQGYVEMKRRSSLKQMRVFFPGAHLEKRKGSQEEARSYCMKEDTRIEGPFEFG
Method: as §1

[3] = tested on: T3, Rep nickase domain of cabbage leaf curl virus
T3 sequence (residues 1-116, tag not shown): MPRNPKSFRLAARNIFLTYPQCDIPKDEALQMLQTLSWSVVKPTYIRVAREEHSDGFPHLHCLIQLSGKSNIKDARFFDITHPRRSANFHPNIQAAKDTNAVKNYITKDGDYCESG
Method: as §1

[4] = tested on: T4, Rep nickase domain of chickpea chlorotic dwarf virus
T4 sequence (residues 1-124, tag not shown): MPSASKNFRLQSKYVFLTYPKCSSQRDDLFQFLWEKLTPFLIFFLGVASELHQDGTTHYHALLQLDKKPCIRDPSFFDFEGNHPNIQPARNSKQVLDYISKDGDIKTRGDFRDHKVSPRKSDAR
Method: as §1

[5] = tested on: T5, Rep nickase domain of faba bean necrotic yellows virus
T5 sequence (residues 1-98, tag not shown): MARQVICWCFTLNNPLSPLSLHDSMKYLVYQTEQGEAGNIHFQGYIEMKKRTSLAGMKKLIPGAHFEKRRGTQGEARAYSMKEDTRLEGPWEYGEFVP
Method: as §1

[6] = tested on: T6, Rep nickase domain of maize striate mosaic virus
T6 sequence (residues 1-117, tag not shown): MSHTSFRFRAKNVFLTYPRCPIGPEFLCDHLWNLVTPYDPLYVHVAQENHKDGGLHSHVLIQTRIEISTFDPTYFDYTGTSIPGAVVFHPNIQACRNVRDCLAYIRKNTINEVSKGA
Method: as §1

[7] = tested on: T7, Rep nickase domain of porcine circovirus 2
T7 sequence (residues 2-116, tag not shown): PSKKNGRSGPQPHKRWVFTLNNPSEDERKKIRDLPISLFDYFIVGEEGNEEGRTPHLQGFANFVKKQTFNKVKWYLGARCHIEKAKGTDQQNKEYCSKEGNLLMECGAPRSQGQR
Method: as §1

[8] = tested on: T8, Rep nickase domain of tomato yellow leaf curl virus
T8 sequence (residues 1-136, tag not shown): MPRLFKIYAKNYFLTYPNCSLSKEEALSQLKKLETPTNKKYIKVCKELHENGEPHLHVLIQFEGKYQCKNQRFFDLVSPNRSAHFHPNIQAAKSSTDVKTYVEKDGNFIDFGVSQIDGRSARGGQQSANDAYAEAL
Method: as §1

[9] = tested on: T9, Rep nickase domain of wheat dwarf virus
T9 sequence (residues 1-137, tag not shown): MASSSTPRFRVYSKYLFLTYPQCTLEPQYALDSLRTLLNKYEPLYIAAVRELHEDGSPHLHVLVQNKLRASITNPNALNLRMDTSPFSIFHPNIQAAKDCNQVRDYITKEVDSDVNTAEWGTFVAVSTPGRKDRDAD
Method: as §1

| Sequence | uncleaved DNA left (log2) [1] | uncleaved DNA left (log2) [2] | uncleaved DNA left (log2) [3] | uncleaved DNA left (log2) [4] | uncleaved DNA left (log2) [5] | uncleaved DNA left (log2) [6] | uncleaved DNA left (log2) [7] | uncleaved DNA left (log2) [8] | uncleaved DNA left (log2) [9] |
| --- | --- | --- | --- | --- | --- | --- | --- | --- | --- |
| AACTGCA | -0.175 | -0.0869 | -0.644 | -0.926 | -0.0634 | -0.962 | -2.66 | 0.0583 | -0.0665 |
| TCGCAGA | 0.0433 | -0.0776 | -0.0906 | -0.0994 | -0.00808 | -0.64 | -0.102 | -0.0943 | -0.0465 |
| AGCCGTC | 0.0856 | 0.0218 | 0.179 | 0.354 | 0.0423 | 0.0662 | 0.0948 | 0.0372 | 0.0162 |
| AGCTGTA | 0.00216 | -0.0189 | 0.247 | 1.36 | -0.112 | 1.5 | -0.136 | -0.149 | 0.0619 |
| GGATCGG | 0.042 | 0.0236 | 0.567 | 1.57 | -0.0568 | 2.05 | 0.0875 | -0.161 | 0.11 |
| AACAAAT | 0.0774 | 0.0311 | -0.107 | -1.63 | 0.0479 | -0.478 | -2.07 | -0.112 | 0.0743 |
| TAGGGGG | 0.113 | 0.0118 | 0.174 | 0.0652 | 0.0945 | -0.162 | 0.299 | 0.0973 | 0.081 |
| TGGATCG | 0.203 | -0.0142 | -0.531 | -0.175 | -0.0608 | -0.915 | 0.216 | 0.0717 | 0.0221 |
| CAGTAAT | -2.2 | -3.22 | -0.588 | -2.56 | -3.2 | 0.22 | -3.86 | 0.103 | -0.0553 |
| ACTTGCG | -0.0866 | -0.063 | 0.448 | 1.82 | -0.028 | 2.19 | -0.0349 | -0.111 | 0.00931 |
| GCTTTTC | -0.101 | -0.0268 | 0.141 | 0.401 | -0.0461 | 0.0154 | -0.0142 | -0.0465 | -0.0315 |
| AAGCGAA | -0.00179 | 0.0317 | -0.0551 | 0.263 | 0.0462 | -0.0798 | 0.0132 | -0.0991 | -0.0774 |
| ATGGTTG | 0.0162 | 0.00569 | 0.0237 | 0.33 | -0.00611 | 0.0213 | 0.103 | -0.0364 | -0.0241 |
| CCATGAC | 0.254 | 0.0853 | 0.0658 | 0.0144 | 0.119 | -0.557 | 0.406 | 0.154 | 0.0964 |
| CTACATT | -0.167 | -0.0651 | -0.566 | -2.71 | 0.0879 | -0.163 | -0.494 | -0.0518 | -0.36 |
| AGGTACC | 0.0257 | -0.019 | 0.107 | 0.33 | 0.0307 | 0.562 | -0.258 | 0.0516 | 0.0962 |
| GACGACA | -0.0899 | 0.0489 | 0.413 | 0.605 | -0.0236 | 1.48 | -0.123 | 0.00906 | 0.129 |
| CCTTCCG | -0.0423 | -0.0156 | -0.841 | 0.0362 | -0.0186 | -0.948 | 0.173 | 0.0112 | -0.136 |
| TTTTGCA | -0.0684 | -0.102 | -0.771 | -0.957 | -0.04 | -1.23 | 0.00103 | 0.00701 | -0.0862 |
| CGGAAGA | -0.0312 | -0.0359 | -0.0338 | 0.288 | -0.0108 | -0.325 | 0.0808 | -0.00355 | -0.0353 |
| GGTAGCT | -0.00265 | -0.0178 | 0.396 | 0.788 | -0.0242 | 0.935 | 0.0562 | -0.0462 | 0.0191 |
| CTTGTAA | 0.101 | 0.145 | 0.0162 | -0.518 | 0.0832 | -0.728 | 0.108 | 0.155 | 0.0936 |
| TTTCGAA | 0.0793 | -0.0672 | -0.045 | -0.278 | -0.0216 | -0.48 | -0.0586 | -0.0381 | -0.0195 |
| TGTGGCA | 0.154 | 0.0665 | 0.368 | 0.682 | 0.176 | 0.741 | 0.138 | 0.121 | 0.0729 |
| CCCTTTG | 0.0253 | -0.00577 | -0.538 | -0.733 | -0.106 | -1.08 | 0.0581 | 0.0967 | -0.174 |
| TACGCAC | -0.0642 | -0.156 | -0.386 | -0.363 | -0.148 | -0.858 | 0.061 | -0.0308 | -0.146 |
| CATGAAC | 0.0475 | 0.0709 | 0.0186 | -0.232 | 0.0688 | -0.759 | 0.133 | 0.0266 | -0.00721 |
| GCTCGTC | -0.0911 | 0.0174 | 0.349 | 1.3 | -0.0189 | 1.08 | -0.104 | 0.0283 | -0.0715 |
| AACCTAG | 0.00714 | -0.0123 | -0.688 | -0.578 | 0.137 | -1.3 | -0.214 | 0.102 | -0.0524 |
| CACGTCC | 0.166 | -0.00741 | -0.0334 | -0.273 | 0.0758 | -0.717 | 0.126 | 0.0976 | 0.0678 |

From the supplement of paper PMC7826260
